According to paper PMC12136788:
The list shows a part of the results.

T1: UNK ZnF1-6 (called full-length) (human, UniProt Q9C0B0 30-357)
T1 sequence: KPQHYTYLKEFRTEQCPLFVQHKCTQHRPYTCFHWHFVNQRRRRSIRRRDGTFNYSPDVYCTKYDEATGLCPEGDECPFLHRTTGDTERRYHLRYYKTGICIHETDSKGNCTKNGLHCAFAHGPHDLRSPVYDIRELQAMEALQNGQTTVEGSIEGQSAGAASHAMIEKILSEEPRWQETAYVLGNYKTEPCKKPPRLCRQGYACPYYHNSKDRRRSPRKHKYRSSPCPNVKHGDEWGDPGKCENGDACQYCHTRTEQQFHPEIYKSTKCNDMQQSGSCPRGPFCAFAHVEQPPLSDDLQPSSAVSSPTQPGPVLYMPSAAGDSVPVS

B1: chr3:53865378:53865479:+|3pUTR|ENSG00000056736|unk|FALSE|unique (ssRNA)
RNA: GGGAGUUCUACAGUCCGACGAUCAUUACAGGGAAAAAACGUGUGAUGAUCCUGAAGCUUACUAUGCAGCCUACAAACAGCCUUAGUAAUUAAAACAUUUUAUACCAAUAAAAUUUUCAAAUAUUGCUAACUAAUGUAGCAUUACAACAGAGGAUUGAGCAUCA
B2: chr11:128839127:128840264:-|CDS|ENSG00000151704|control|control|control (ssRNA)
RNA: GGGAGUUCUACAGUCCGACGAUCAAGACAGUGGAAGUGGAGACCCCUCACUGUGCCAUGUGCCUUUAUAAUGAGAAAGAUGUUAGAGCCAGGAUGAAGAGAGGCUAUGACAACCCCAACUUCAUCUUGUCAGAAGUCAAUGAACAACAGAGGAUUGAGCAUCA
B3: ENSG00000107863:be:win_4001|CDS|ENSG00000107863|bound_else_gene|NA|bound_elsewhere_windowed (ssRNA)
RNA: GGGAGUUCUACAGUCCGACGAUCACCAUGACUGGUUUUUCACAGAAGAAGGUGCUGAAGAGCCUCUUACAACAGUGCAGGAGGAAAGCACAGUAGACUCCCAGCCAGUGCCAAACAUAGAUCAUUUACUCACCAACAUUGGAACAACAGAGGAUUGAGCAUCA
B4: chr10:91841327:91841437:+|CDS|ENSG00000107854|unk|total|mutant (ssRNA)
RNA: GGGAGUUCUACAGUCCGACGAUCUUCUUAUGGACAUUAUGAAGUUGCAGAACUUCUUGUUAAACAUGGAGCAGCCGUUAAUGCCGCUGAUUUAUGGAAAUUUACACCUUUACAUGAAGCAGCAGCAAAAGGAAAAUAUGAAAUCAACAGAGGAUUGAGCAUCA
B5: chr20:58910839:58911044:+|3pUTR|ENSG00000087460|msi1_unk|total|mutant (ssRNA)
RNA: GGGAGUUCUACAGUCCGACGAUCCCUUAAGCACAAUUAAUUAAAAGUGAAACGUAAUUGUACAAGCAGUUAAUCACCCACCACCGGGCAUGAUUAACAAAGCAACCUUUCCCUUCCCCCGAGUGAUUUUGCGAAACCCCCUUUCAACAGAGGAUUGAGCAUCA
B6: ENSG00000177426:stop:overlap|stop_codon|ENSG00000177426|stop_codon|NA|stop_codon (ssRNA)
RNA: GGGAGUUCUACAGUCCGACGAUCCUCAAAGACAGAAGGAAUAUCUUUUUAUUGUAAACUUGAUAGUGUUAAAAGCUAAUAACUAGCUAUUUAGAGAACACAGAAACACUUGACAGUCAUCUAUCAGAUAGCAUUUCCUUUAAUCAACAGAGGAUUGAGCAUCA
B7: ENSG00000136451:be:win_2101|3pUTR|ENSG00000136451|bound_else_gene|NA|bound_elsewhere_windowed (ssRNA)
RNA: GGGAGUUCUACAGUCCGACGAUCAUGUUAAUUUCAGGCAGCAUUCCCUAUGGGAAAGGUGAUACCAGCUCUGAUAUGCAAAGCAUAUGAUAAUUUAUCAUUCUAACUUCAACGUAUAAUAGGGAUUGUGACCUGAUAUUUGGACAACAGAGGAUUGAGCAUCA
B8: chr19:48404743:48404844:+|CDS|ENSG00000105464|unk|FALSE|unique (ssRNA)
RNA: GGGAGUUCUACAGUCCGACGAUCCGAGCAACAGCUUCAGGUCAUCUUUGAGGUGCUGGAGGAGUAUGACUGGACGUCCUUUGUAGCCGUGACCACUCGUGCCCCUGGCCACCGGGCCUUCCUGUCCUACAUUGAGGUGCUGACCAACAGAGGAUUGAGCAUCA
B9: chr12:13083531:13085147:-|three_prime_utr|ENSG00000111305|control|control|control (ssRNA)
RNA: GGGAGUUCUACAGUCCGACGAUCUCCGAGCUGCGGAACAAGGGAUUUCAAAGAGGGGCCAGCCAGGAGCUGAAAGAAGCAGUUAGGUCAUCUGUAGAGGAAGAGCAGUGUUAGGAGUUAAGCGGGUUUGGGGAGUAGGCUUGACAACAGAGGAUUGAGCAUCA
B10: chr9:101390585:101390694:-|CDS|ENSG00000136897|unk|total|mutant (ssRNA)
RNA: GGGAGUUCUACAGUCCGACGAUCUAAUUGGCAAGACAUCUCCCUGGAAGACCGUCGUCUAAAGUUCAAUCUUCUGGCUCAUUCCGCUGAUGACUUGGGUCAUGCCGUCCCUAACUCCAGACUCCACCAGAUGUGCAGGGUCCGCAACAGAGGAUUGAGCAUCA
B11: ENSG00000084774:stop:overlap|stop_codon|ENSG00000084774|stop_codon|NA|stop_codon (ssRNA)
RNA: GGGAGUUCUACAGUCCGACGAUCAGGCUGAGAACGGCAUGUACAUCCGCAUGGCUCUGUUAGCCACCGUGCUGGGCCGUUUCUAGGGCCUGGCUUCCUCAGCCUCUUCUCUUUAGGCCCAGCUGCUGGGCAAGGAAUUCCAGUCAACAGAGGAUUGAGCAUCA
B12: chr5:140245379:140245480:-|3pUTR|ENSG00000113068|msi1|total|mutant (ssRNA)
RNA: GGGAGUUCUACAGUCCGACGAUCUCUUCUCUUUUCCCUUCCUGUACCUUUGACUAACGCUCAGCUUCCGGGCCUGCAUGCAGCCGACAGAAGAGGAAGAAAGAACAGAUGUUCACAGCUGAAUCUCAGUGAACAGAACCGCAGCAACAGAGGAUUGAGCAUCA
B13: chr17:65014400:65014519:-|CDS|ENSG00000120063|unk|total|mutant (ssRNA)
RNA: GGGAGUUCUACAGUCCGACGAUCAAACAAGACAGACUUGCUUGAGGAGAAGGUGCAAAUUGUGAGCAUCAAAGACUAUUUCCCCGAAUUUGAAGGGGAUCCCCACUGCUUAAGAGACGUCCAAAAAUUCCUGGUGGAAUGUUUCAACAGAGGAUUGAGCAUCA
B14: ENSG00000198589:be:win_7551|CDS|ENSG00000198589|bound_else_gene|NA|bound_elsewhere_windowed (ssRNA)
RNA: GGGAGUUCUACAGUCCGACGAUCGCCUGGUUUGGCAACUCCCGCUGUGAUCACAGUCACUGCUAACAGGUUAUUUGCGGUGAACAAAUGGCACAACCUUCCUGCUCAUCAAGGUGCUGUACAAGACCAGCCAUACCAGCUGCCCAACAGAGGAUUGAGCAUCA

The binders below were run against T1, UNK ZnF1-6 (called full-length) (assay: nsRBNS (natural sequence RNA bind-n-seq); RBNS binding buffer (assumed for nsRBNS): 25 mM Tris pH 7.5, 150 mM KCl, 3 mM MgCl2, 0.01% Triton X-100, 500 ug/ml BSA, 20 U/ml SUPERase-In, 4 C; UNK is unkempt and MSI1 is Musashi-1; names of the RNAs are library labels; protein concentration not given here; high values mean tight binding).

Binder	binding signal
B1	0.777 enrichment R
B2	0.442 enrichment R
B3	1.09 enrichment R
B4	0.509 enrichment R
B5	0.563 enrichment R
B6	0.689 enrichment R
B7	0.282 enrichment R
B8	0.537 enrichment R
B9	1.4 enrichment R
B10	0.623 enrichment R
B11	1.28 enrichment R
B12	0.57 enrichment R
B13	0.375 enrichment R
B14	0.86 enrichment R
